Assay results reported in the supplement of paper PMC3334620.
In all, about 33,000 sequences were measured (“E-score (-0.5 to 0.5)”: median about -0.035, highest 2% from about 0.35 on). Some of the results follow.

molecular target: T1, Pdr3 (UniProt P33200); assay: PBM E-score (8-mer binding enrichment) (E-score (-0.5 to 0.5)); higher = stronger / more preferred TF binding; most listed sequences are background and not binding sites; conditions: protein concentration: 200 nM; construct: GST-full length
T1 sequence: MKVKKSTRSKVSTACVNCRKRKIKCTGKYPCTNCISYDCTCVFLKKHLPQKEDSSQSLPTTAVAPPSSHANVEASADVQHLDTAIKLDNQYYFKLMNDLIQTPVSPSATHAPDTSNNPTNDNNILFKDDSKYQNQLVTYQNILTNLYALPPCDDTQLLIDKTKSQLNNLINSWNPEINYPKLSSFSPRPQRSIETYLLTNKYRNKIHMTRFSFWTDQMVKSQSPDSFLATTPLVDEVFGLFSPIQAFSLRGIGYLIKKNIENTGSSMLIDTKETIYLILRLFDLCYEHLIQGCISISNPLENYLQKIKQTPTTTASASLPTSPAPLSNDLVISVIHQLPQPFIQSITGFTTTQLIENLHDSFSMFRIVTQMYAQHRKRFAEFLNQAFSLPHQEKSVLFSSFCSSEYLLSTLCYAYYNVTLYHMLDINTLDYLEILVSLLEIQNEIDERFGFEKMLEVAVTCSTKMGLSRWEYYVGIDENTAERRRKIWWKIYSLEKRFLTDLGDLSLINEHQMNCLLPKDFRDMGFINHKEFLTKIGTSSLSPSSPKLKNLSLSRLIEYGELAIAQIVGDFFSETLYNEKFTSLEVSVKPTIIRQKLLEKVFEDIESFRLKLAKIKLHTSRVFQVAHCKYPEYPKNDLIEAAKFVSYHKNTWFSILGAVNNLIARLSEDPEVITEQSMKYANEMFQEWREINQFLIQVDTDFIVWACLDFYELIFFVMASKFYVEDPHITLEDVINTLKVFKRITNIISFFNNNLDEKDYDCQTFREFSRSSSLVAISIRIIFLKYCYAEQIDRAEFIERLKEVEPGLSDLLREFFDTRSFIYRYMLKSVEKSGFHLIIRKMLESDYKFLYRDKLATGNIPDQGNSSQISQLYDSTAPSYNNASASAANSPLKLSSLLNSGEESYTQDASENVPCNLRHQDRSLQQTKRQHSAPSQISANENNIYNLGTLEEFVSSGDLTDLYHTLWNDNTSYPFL
Method in brief: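 PURExpress in vitro transcription/translation supplied GST-tagged yeast transcription factors, either full-length or DNA-binding domain. Applied at about 100-200 nM to universal all-10-mer Agilent arrays double-stranded by primer extension, the bound protein was detected with fluorescent anti-GST. E-scores, modified Wilcoxon-Mann-Whitney statistics, were given by the Universal PBM Analysis Suite to ungapped eight-base words pooled with their reverse complements after masliner normalisation.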

| Sequence | PBM E-score |
| --- | --- |
| ATCAGGAG | -0.0399 |
| AGCGCCAC | -0.132 |
| GTAGATCA | 0.188 |
| GAGATAAC | 0.0104 |
| GTAAGTAA | -0.134 |
| CGAGTAGC | 0.0654 |
| ATACAGAC | 0.0563 |
| ATAGAGAC | -0.153 |
| AAGTGGAC | -0.083 |
| ATAGTGAG | -0.186 |
| CACATGCA | -0.0842 |
| CCCTGTCG | -0.0711 |
| AGCCTAAA | -0.206 |
| ATCAGGTA | -0.0279 |
| GTAATCTA | 0.0675 |
| CACCATGG | -0.266 |
| ACGCGCTC | 0.0762 |
| ATCTACAA | -0.234 |
| ACATGCGC | 0.0468 |
| AAGGGGAC | 0.00657 |
| TGCTATAA | -0.00165 |
| AATAAATT | 0.0655 |

| Sequence | PBM E-score |
| --- | --- |
| AGCCCGGG | 0.383 |
| AATCGCCC | 0.0276 |
| AGGATCAT | -0.157 |
| GCGGGGTA | 0.233 |
| TCGGACGA | 0.233 |
| ACTAAAAT | 0.0253 |
| AGCAACTG | -0.055 |
| CTATTCCA | 0.13 |
| AATCCAGA | 0.127 |
| ATGCGGCG | 0.172 |
| GTCCTGAA | -0.00529 |
| AACTCGTG | 0.0222 |
| AAACTGTT | 0.062 |
| CTGGACAC | -0.172 |
| AACATTCT | -0.189 |
| CAGAAGAA | -0.231 |
| TAGCAAGA | -0.149 |
| GCTACTAC | 0.146 |
| ATTTGGAC | -0.0704 |
| CGGTCATA | 0.0842 |
| AAGCACGT | -0.0941 |
| TACAATGA | -0.255 |

| Sequence | PBM E-score |
| --- | --- |
| GGTGAGGA | -0.0196 |
| CTAAATAA | -0.143 |
| GCAATCAA | -0.0663 |
| CCGCGACA | 0.201 |
| ATTACCCC | 0.213 |
| CTGTACAC | -0.201 |
| ACGTTCAC | -0.184 |
| ACTATAGC | -0.092 |
| CGGAAATC | 0.407 |
| CTCGACGC | 0.0906 |
| TAAGATTA | -0.146 |
| CCAGATGG | -0.0553 |
| CCATCTAC | -0.0638 |
| AGGTCACG | -0.0472 |
| GGTAGGAC | -0.0863 |
| ATATTAGC | -0.00055 |
| ATAGCGGC | 0.186 |
| CCTAGCAC | -0.178 |
| AATGACAC | -0.0767 |
| CATAGAGA | -0.158 |
| CCGGACAG | 0.338 |
| ACCACCGC | -0.0536 |

| Sequence | PBM E-score |
| --- | --- |
| CAATTACA | 0.0132 |
| AATGGCAA | -0.154 |
| AGACGCTA | -0.119 |
| CCCGCCTC | 0.12 |
| CCCGGAAG | 0.419 |
| ATGGCTCG | -0.0282 |
| CAGCATGC | 0.0261 |
| CGACAAGA | 0.0261 |
| CTCACTCA | -0.0809 |
| TGCGCGCA | 0.205 |
| ATCCTTCC | -0.0925 |
| ATAGGGAA | -0.0342 |
| GGCACTCA | -0.251 |
| CGCAAAGA | 0.00604 |
| ATTAATGC | -0.0462 |
| GAATGCAC | 0.195 |
| ACCCGCTC | 0.057 |
| ATGGATCG | 0.139 |
| GCTGCTCA | -0.154 |
| CACAAGAG | -0.042 |
